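Interpolation was linear, between the two tested concentrations surrounding the appropriate level; five concentrations were tested over 48 hours in 96-well plates. GI50 = concentration required for 50% inhibition of growth. Definition used: TGI = concentration required for complete inhibition of growth.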
Tested on: NCI-H322M lung
Assay: NCI anticancer screen, dose series, 48 h

| SMILES | GI50 | TGI |
| --- | --- | --- |
| CNC1CCc2c(sc(NC(=O)c3ccc(C(C)(C)C)cc3)c2C(N)=O)C1 (stereo unspecified) | 2.13 µM | 5.06 µM |
| CCNC(=O)N1CCc2cc(OC)c(OCCc3ccc(OC)nc3)cc2C1c1ccc(C)cc1C (stereo unspecified) | 1.96 µM | > 100 µM |
| CN1CCN(Cc2ccc(NC(=O)c3cncc(C#Cc4cnc5ccc(OCC6(C)COC6)nn45)c3)cc2C(F)(F)F)CC1 | 0.17 µM | 0.498 µM |

Reference: PubChem BioAssay (NCI)
